SMILES strings stand for the structures.

The experiment relates to Pyricularia oryzae. The class given is cell-based. Particulars: 31 ppm, absorption at 405 nm on day 7, control = 100%.

Turning to `CC(COc1cccc(Cl)c1)=C(C)CC(C(O)C(C)(C)C)n1cncn1` (stereo not shown) [I.A4a], the “relative growth in % of the pathogen” value was found to be 9%.

These data come from US20110160055A1, “Imidazole and Triazole Compounds as Fungicides” (BASF SE, priority 2008, published 2011).
